# According to PubChem BioAssay (Tox21):
# Where “and” joins values, the source holds several entries; their conditions need not be identical. Identical values can stand only once. The inconclusive results got no clear call from the source; some entries with a clear call stand among them for comparison. A potency beside an inconclusive call is a rough fit, not a confirmed value. Some structures have more than one record in an assay (separate samples or runs), and their calls can disagree. Calls of active or inactive are those of the source. Unless noted, calls come from the whole dose curve; as a rule, active = well fitted curve in the direction sought with a large enough effect in the repeat runs; inconclusive = weak or mixed curves; inactive = no such curve, though single readings can be large; an effect the other way counts as inactive or inconclusive.
# Experiments:
# [1] = qHTS assay to identify small molecule HDAC inhibitors (AID 1259364);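 note: wild-type HCT-116 cells with endogenous class I/II HDAC activity; nearly all actives have a fitted effect of over 45% in size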; for activity change, negative = inhibition: top concentration of the series differs between compounds; % is set by controls: 0 for no effect and ±100 for the full control effect
# Summary of the method: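 Cells (HCT-116, wild type) are seeded at 1,500 per well, incubated overnight, treated with compound in DMSO for 2 hr, then developed with HDAC-Glo I/II reagent for 30 min at room temperature.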
# [2] = qHTS assay to identify small molecule agonists of the sonic hedgehog signaling (Shh) pathway - cell viability counter screen (AID 1259366); note: nearly all actives have a fitted effect of over 50% in size
# Summary of the method: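 Fluorescence from CellTiter-Fluor reports live cells in this counter screen. NIH/3T3-derived Gli1-Luc reporter cells receive test compounds for 24hr at 37C; reagent goes in at 23hr.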
# [3] = qHTS assay to identify small molecule antagonists of the sonic hedgehog signaling (Shh) pathway (AID 1259369; calls by dose curve; note: nearly all actives have a fitted effect of over 45% in size; for activity change, negative = inhibition: % is set by controls: 0 for no effect and ±100 for the full control effect)
# Summary of the method: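 Cells are plated and held 4hr at 37 C, compounds (DMSO) are pinned in, conditioned medium is added to stimulate the pathway, and after 24hr luciferase reagent is added for 30min before luminescence is read.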
# [4] = target: Estrogen receptor beta (Homo sapiens) (UniProt Q92731); test: qHTS assay to identify small molecule agonists of the estrogen receptor beta (ER-beta) signaling pathway (AID 1259377; active = well fitted activation curve with a large enough effect in the signal ratio in the repeat runs, not every such curve was filed as active; inconclusive = weak or mixed curves, or effect the other way; the % refers to the signal ratio); conditions: ER-beta-UAS-bla HEK293T, beta-lactamase FRET ratio, 16 h; activation: at 92.4 µM (top of the series) unless noted
# UniProt Q92731, sequence (Q92731 whole entry, looked up): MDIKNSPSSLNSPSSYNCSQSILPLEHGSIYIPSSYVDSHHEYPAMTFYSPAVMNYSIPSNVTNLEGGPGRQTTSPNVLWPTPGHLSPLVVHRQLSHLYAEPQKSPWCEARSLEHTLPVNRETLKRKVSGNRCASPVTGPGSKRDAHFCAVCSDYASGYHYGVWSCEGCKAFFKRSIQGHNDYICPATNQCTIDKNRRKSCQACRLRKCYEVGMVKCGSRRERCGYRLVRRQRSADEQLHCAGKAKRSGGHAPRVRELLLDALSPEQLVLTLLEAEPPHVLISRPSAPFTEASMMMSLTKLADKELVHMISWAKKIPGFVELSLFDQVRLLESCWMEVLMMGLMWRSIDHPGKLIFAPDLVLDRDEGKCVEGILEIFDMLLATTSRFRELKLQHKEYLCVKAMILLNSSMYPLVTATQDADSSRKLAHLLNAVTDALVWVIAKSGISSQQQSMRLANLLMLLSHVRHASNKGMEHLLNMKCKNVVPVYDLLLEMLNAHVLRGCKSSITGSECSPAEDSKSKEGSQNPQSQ
# Summary of the method: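 Screening used GripTite ER-beta-UAS-bla cells held in 2% charcoal-stripped FBS medium. After overnight (16 hr) compound incubation at 37C, beta-lactamase activity was detected with a FRET substrate by fluorescence.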
# [5] = target: Estrogen receptor beta (Homo sapiens) (UniProt Q92731); test: qHTS assay to identify small molecule antagonists of the estrogen receptor beta (ER-beta) signaling pathway (AID 1259378; active = well fitted inhibition curve with a large enough effect in the signal ratio in the repeat runs, not every such curve was filed as active; inconclusive = weak or mixed curves, or effect the other way; inactive = no such curve, though single readings can be large or run the other way; the % refers to the signal ratio; for activity, negative = inhibition: % is set by controls: 0 for no effect and ±100 for the full control effect); conditions: ER-beta-UAS-bla HEK293T, beta-lactamase FRET ratio, 16 h
# Summary of the method: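 ER-beta-UAS-bla HEK293T cells in 2% charcoal-stripped FBS medium treated with compound plus 1nM final 17-beta-estradiol for 16 hr at 37C. Beta-lactamase reporter read by FRET substrate fluorescence after 2 hours at room temperature.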
# [6] = qHTS assay to identify small molecule agonists of the estrogen receptor beta (ER-beta) signaling pathway - cell viability counter screen (AID 1259380); note: nearly all actives have a fitted effect of over 30% in size
# Summary of the method: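 Cytotoxicity is measured in parallel with the reporter screen: after 16 hr compound exposure at 37C and a 2 hr LiveBLAzer step, CellTiter-Glo is added to the same ER-beta-UAS-bla HEK293T wells and luminescence read after 30 min.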
# [7] = target: Thyrotropin receptor (Homo sapiens) (UniProt P16473); test: qHTS assay to identify small molecule antagonists of the thyroid stimulating hormone receptor (TSHR) signaling pathway (AID 1259385; calls by dose curve; note: nearly all actives have a fitted effect of over 20% in size); conditions: TSHR-HEK293 cAMP HTRF, TSH-stimulated antagonist mode; activity change, negative = inhibition: at 92.4 µM (top of the series) unless noted
# UniProt P16473, sequence (P16473 whole entry, looked up): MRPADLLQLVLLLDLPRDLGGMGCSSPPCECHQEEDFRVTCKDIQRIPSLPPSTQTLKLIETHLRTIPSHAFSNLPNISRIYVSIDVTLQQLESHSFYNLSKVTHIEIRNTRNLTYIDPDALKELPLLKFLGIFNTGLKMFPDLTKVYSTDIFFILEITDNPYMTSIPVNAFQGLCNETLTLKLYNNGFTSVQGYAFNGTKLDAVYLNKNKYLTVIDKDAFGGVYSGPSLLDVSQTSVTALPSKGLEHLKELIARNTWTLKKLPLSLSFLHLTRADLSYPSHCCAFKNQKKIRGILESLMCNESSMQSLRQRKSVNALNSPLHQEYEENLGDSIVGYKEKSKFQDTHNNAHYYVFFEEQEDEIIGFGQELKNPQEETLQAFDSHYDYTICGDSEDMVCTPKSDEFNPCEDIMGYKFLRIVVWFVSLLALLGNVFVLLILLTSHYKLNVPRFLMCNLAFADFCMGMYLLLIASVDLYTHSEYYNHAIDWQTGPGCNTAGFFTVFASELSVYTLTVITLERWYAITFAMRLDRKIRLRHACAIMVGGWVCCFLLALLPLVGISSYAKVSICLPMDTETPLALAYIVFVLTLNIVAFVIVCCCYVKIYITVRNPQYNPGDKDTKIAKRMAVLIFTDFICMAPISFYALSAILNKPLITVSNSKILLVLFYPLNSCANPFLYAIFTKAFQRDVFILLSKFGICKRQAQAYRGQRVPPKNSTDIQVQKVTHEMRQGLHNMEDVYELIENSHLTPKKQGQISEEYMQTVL
# Summary of the method: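 TSHR-HEK293 cells (800/well) plated 18 h, then compounds with Ro20-1724 and TSH at 1.5 ng/mL final, 30 min at room temperature. cAMP quantified by HTRF (cAMP-d2/anti-cAMP-cryptate, 1 h); 15 concentrations in triplicate.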
# [8] = target: Progesterone receptor (Homo sapiens) (UniProt P06401); test: qHTS assay to identify small molecule antagonists of the progesterone receptor (PR) signaling pathway (AID 1346795; active = well fitted inhibition curve with a large enough effect in the signal ratio in the repeat runs, not every such curve was filed as active; inconclusive = weak or mixed curves; the % refers to the signal ratio; for activity change, negative = inhibition: % is set by controls: 0 for no effect and ±100 for the full control effect); conditions: PR-UAS-bla HEK293T, beta-lactamase FRET ratio, 16 h; activity change, negative = inhibition: at 92.4 µM (top of the series) unless noted
# UniProt P06401, sequence (P06401 whole entry, looked up): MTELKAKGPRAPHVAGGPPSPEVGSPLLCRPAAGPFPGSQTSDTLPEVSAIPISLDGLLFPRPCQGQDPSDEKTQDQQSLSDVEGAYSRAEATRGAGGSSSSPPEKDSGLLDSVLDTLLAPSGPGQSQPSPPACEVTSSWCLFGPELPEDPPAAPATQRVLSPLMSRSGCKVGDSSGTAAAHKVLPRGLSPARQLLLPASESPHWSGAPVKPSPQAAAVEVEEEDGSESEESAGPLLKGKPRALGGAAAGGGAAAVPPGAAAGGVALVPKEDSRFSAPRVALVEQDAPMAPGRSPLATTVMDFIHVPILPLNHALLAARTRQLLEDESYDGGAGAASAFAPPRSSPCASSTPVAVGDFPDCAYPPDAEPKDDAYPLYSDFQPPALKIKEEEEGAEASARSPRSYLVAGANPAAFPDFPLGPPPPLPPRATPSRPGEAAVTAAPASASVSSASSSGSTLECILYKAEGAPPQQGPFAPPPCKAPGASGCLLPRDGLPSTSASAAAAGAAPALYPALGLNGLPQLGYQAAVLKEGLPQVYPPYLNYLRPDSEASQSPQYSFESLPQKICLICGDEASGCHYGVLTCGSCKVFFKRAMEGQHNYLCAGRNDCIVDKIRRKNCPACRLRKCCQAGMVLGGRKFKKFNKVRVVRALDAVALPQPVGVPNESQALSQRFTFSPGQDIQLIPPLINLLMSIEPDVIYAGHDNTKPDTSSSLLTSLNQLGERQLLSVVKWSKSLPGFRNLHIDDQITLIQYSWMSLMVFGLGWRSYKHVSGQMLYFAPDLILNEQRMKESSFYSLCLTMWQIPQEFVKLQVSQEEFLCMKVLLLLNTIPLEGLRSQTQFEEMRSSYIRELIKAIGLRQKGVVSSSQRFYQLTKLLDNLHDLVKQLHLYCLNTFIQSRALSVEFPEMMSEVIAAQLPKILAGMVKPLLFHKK
# Summary of the method: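 Screening used a GripTite HEK293T line with PR-responsive UAS-beta-lactamase. Cells were challenged with compound in the presence of 1 nM R5020 final for 16 hr at 37C; B/G FRET substrate, 2 hr room temperature, fluorescence.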
# [9] = qHTS assay to identify small molecule agonists of the progesterone receptor (PR) signaling pathway - cell viability counter screen (AID 1346799; calls by dose curve; note: nearly all actives have a fitted effect of over 45% in size)
# Summary of the method: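 Using the same plates as the PR reporter screen, HEK293T PR-UAS-bla cells received compounds for 16 hr at 37C and were then lysed with CellTiter-Glo; luminescence was read 30 min later at room temperature.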
# [10] = qHTS assay to identify small molecule antagonists of the TGF-beta/Smad signaling pathway - cell viability counter screen (AID 1346824); note: nearly all actives have a fitted effect of over 50% in size
# Summary of the method: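 SBE-bla HEK 293T cells, incubated overnight, then compound plus 0.25 ng/mL TGF-beta1 (stock added) for 5 hr at 37 C. Viability was read in the same wells by CellTiter-Glo luminescence after 30 min at room temperature.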
# [11] = qHTS assay to identify small molecule HDAC inhibitors - cell viability counter screen (AID 1259365); note: nearly all actives have a fitted effect of over 50% in size
# Summary of the method: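 To flag cytotoxic hits, 1,500 wild-type HCT-116 cells per well, plated the day before, receive test compounds for 2hr at 37 C before CellTiter-Glo reagent and a luminescence read.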
# [12] = qHTS assay to identify small molecule agonists of the androgen receptor (AR) signaling pathway in the presence of an antagonist - cell viability counter screen (AID 1259379); note: nearly all actives have a fitted effect of over 25% in size
# Summary of the method: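 Cytotoxicity is assessed by CellTiter-Fluor in MDA-kb2 cells carrying an MMTV-driven luciferase reporter. Cells receive 3.0uM nilutamide plus compounds at 15 concentrations and incubate 16 hr at 37C without CO2 before fluorescence reading.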
# [13] = qHTS assay to identify small molecule agonists of the estrogen receptor alpha (ER-alpha) signaling pathway in the presence of an antagonist - cell viability counter screen (AID 1259386);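 note: cells exposed to compounds for 22 h at 37 °C before the viability read; nearly all actives have a fitted effect of over 30% in size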
# Summary of the method: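 Cytotoxicity was measured in parallel with the ERE-luciferase agonist screen, in the same wells. The cells were VM7Luc4E2, which endogenously express ER-alpha, and treatment was with compounds plus 10.0nM ICI-182,780 for 22hr.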
# [14] = target: Progesterone receptor (Homo sapiens) (UniProt P06401); test: qHTS assay to identify small molecule agonists of the progesterone receptor (PR) signaling pathway (AID 1346784; calls by dose curve; note: nearly all actives have a fitted effect of over 30% in size); conditions: PR-UAS-bla HEK293T, beta-lactamase FRET ratio, 16 h; activation: at 92.4 µM (top of the series) unless noted
# Summary of the method: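 Seed PR-UAS-bla HEK 293T cells (2% charcoal-stripped FBS), incubate 6 hr at 37C; add compounds in DMSO, 16 hr at 37C; add LiveBLAzer B/G substrate, 2 hr RT; read fluorescence intensity.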
# [15] = qHTS assay to identify small molecule antagonists of the estrogen receptor beta (ER-beta) signaling pathway - cell viability counter screen (AID 1259382); note: nearly all actives have a fitted effect of over 55% in size
# Summary of the method: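 Cytotoxicity counter screen multiplexed with the beta-lactamase antagonist assay: GripTite HEK293T ER-beta-bla cells were treated 16 hr with test chemicals in the presence of 1nM 17-beta-estradiol, and viability was measured by CellTiter-Glo.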
# [16] = qHTS assay to identify small molecule antagonists of the sonic hedgehog signaling (Shh) pathway - cell viability counter screen (AID 1259367); note: nearly all actives have a fitted effect of over 55% in size
# Summary of the method: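 Fluorescence read-out (CellTiter-Fluor, 1 hr at 37C) taken after 23 hr compound treatment of 3T3 Gli1-Luc cells stimulated with conditioned medium. Cells were seeded at 2,000 per well and pre-incubated 4 hr.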
# [17] = qHTS assay to identify small molecule antagonists of the progesterone receptor (PR) signaling pathway - cell viability counter screen (AID 1346798); note: nearly all actives have a fitted effect of over 50% in size
# Summary of the method: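 Measures cytotoxicity in parallel with the PR antagonist reporter read: HEK293T PR-UAS-bla cells get compound and R5020 for 16 hr, and remaining viable cells are quantified by CellTiter-Glo luminescence.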
# [18] = activity, negative = inhibition: at 92.4 µM (top of the series) unless noted
# Potency is the fitted concentration of half-maximal effect; tags give direction and shape of the fitted curve or compound fluorescence and quenching.
smiles,measurement,setting,value
C=CC(=O)NCNC(=O)C=C,Potency,[1],"inconclusive: 61.1 µM [inhibitor, single point]"
same,Potency,[2],"inconclusive: 61 µM [cytotoxic, single point]"
same,Potency,[3],"inconclusive: 7.67 µM [inhibitor, full curve]"
same,Potency,[4],"inconclusive: 3.06 µM [falling, full curve, poor fit]"
same,Potency,[5]; [18],"inconclusive: 38.6 µM [activator, partial curve, poor fit]"
same,Potency,[6],"inconclusive: 68.6 µM [rising, partial curve, poor fit]"
same,Potency,[7],"inconclusive: 2.73 µM [falling, single point]"
same,"activity change, negative = inhibition",[8],inconclusive: 7.28%
same,Potency,[9],"inconclusive: 21.7 µM [rising, partial curve]"
same,Potency,[10],"inconclusive: 21.8 µM [rising, single point]"
Nc1ccc(N)cc1,Potency,[1],"inconclusive: 54.5 µM [inhibitor, partial curve]"
same,Potency,[11],"inconclusive: 68.6 µM [cytotoxic, partial curve, poor fit]"
same,Potency,[2],"active: 61.4 µM and inconclusive: 43.3 µM [cytotoxic, partial curve]"
same,Potency,[4],"inconclusive: 4.88 µM [fluorescent, full curve]"
same,"activity, negative = inhibition",[5]; at 42.5 µM (top of the series),inconclusive: -27.2%
same,"activity, negative = inhibition",[5]; at 92.4 µM (top of the series),inconclusive: -34.5% and inconclusive: -44.5%
same,Potency,[12],"inconclusive: 68.6 µM [cytotoxic, single point] and inconclusive: 29.8 µM [cytotoxic, partial curve]"
same,Potency,[6],"inconclusive: 2.44 µM [cytotoxic, full curve] and inconclusive: 27.3 µM [cytotoxic, full curve] and inactive"
same,Potency,[13],"inconclusive: 26.6 µM [cytotoxic, partial curve] and inconclusive: 29.8 µM [cytotoxic, partial curve]"
same,Potency,[14],"inconclusive: 33.5 µM [falling, single point]"
same,Potency,[9],"inconclusive: 30.6 µM [rising, single point]"
same,Potency,[10],"inconclusive: 1.96 µM [cytotoxic, single point]"
CC(O)(CS(=O)(=O)c1ccc(F)cc1)C(=O)Nc1ccc(C#N)c(C(F)(F)F)c1 (centres undefined),Potency,[1],inactive
same,Potency,[3],"inconclusive: 11.3 µM [inhibitor, full curve]"
same,Potency,[5]; [18],"inconclusive: 50.4 µM [rising, single point]"
same,Potency,[6],active: 31.8 µM
same,Potency,[15],active: 28.3 µM
same,Potency,[8],"inconclusive: 1.13 µM [rising, full curve]"
CCNc1nc(NC(C)C)nc(SC)n1,Potency,[1],inactive
same,Potency,[3],"inconclusive: 2.75 µM [inhibitor, full curve] and inactive"
Cc1cccc(N)c1,Potency,[1],"inconclusive: 30.7 µM [inhibitor, partial curve]"
same,Potency,[3],"inconclusive: 24.4 µM [inhibitor, full curve]"
O=C=Nc1ccc(Cl)cc1,Potency,[1],"inconclusive: 54.5 µM [inhibitor, partial curve]"
same,Potency,[16],"inconclusive: 68.6 µM [cytotoxic, partial curve, poor fit]"
same,Potency,[3],"inconclusive: 61.1 µM [inhibitor, single point]"
same,Potency,[14],"inconclusive: 21.7 µM [rising, partial curve, poor fit]"
same,"activity change, negative = inhibition",[8],inconclusive: -28.4%
same,Potency,[9],"inconclusive: 4.33 µM [cytotoxic, full curve]"
COC(C)(C)CCC[C@H](C)C/C=C/C(C)=C/C(=O)OC(C)C,Potency,[1],"inconclusive: 68.6 µM [inhibitor, partial curve, poor fit]"
same,Potency,[4],inactive
same,Potency,[9],"inconclusive: 38.6 µM [rising, partial curve, poor fit]"
C[C@]12CCC(=O)C=C1CC[C@@H]1[C@@H]2CC[C@]2(C)C(=O)CC[C@@H]12,Potency,[1],inactive
same,Potency,[3],active: 15.1 µM and active: 13.7 µM
same,Potency,[4],"inconclusive: 47.7 µM [fluorescent, partial curve] and inactive"
same,"activity, negative = inhibition",[5]; [18],inconclusive: 14.2% [at 42.5 µM]
same,Potency,[6],"active: 53.5 µM and active: 54.5 µM and inconclusive: 21.1 µM [cytotoxic, partial curve]"
same,Potency,[15],"inconclusive: 54.5 µM [cytotoxic, partial curve]"
same,Potency,[17],"inconclusive: 7.5 µM [cytotoxic, full curve]"
same,Potency,[9],active: 61.1 µM
